# Results from PubChem BioAssay (NCI).
# The source holds several records for some structures; these can differ, active in one and inactive in another.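 Cell lines were cultured in 96-well plates, exposed to a single compound concentration, and assessed for percent growth 48 hours later.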 Not every entry of the source has a single result; some have several. The list is limited to them. Rule for the calls: active = growth percent below 10; inactive = the rest. An entry can have further records. This drug was run again and again over the years, at the concentration stated with the values; one value stands for one run. Brackets with × say how often a value occurs here.
# System: RXF 393 renal
# Experiment: NCI-60 one-dose screen, 48 h (100 = growth as untreated, 0 = no growth, -100 = all killed)
smiles,measurement,setting,value
COc1cccc2c1C(=O)c1c(O)c3c(c(O)c1C2=O)C[C@@](O)(C(=O)CO)C[C@@H]3OC1CC(N)C(O)C(C)O1 (stereo not given in full),growth,"0.25 µM, runs of 2015","inactive: 67.2, 58.1, 59.5, 52.3, 63.1, 62.4, 54.6, 55.1, 45.5 (2×), 60.5 (2×), 59.6, 60.6, 75.6, 74.5, 67.4 (2×), 54.3, 54.7, 57.4, 61.4 (2×), 64.2 (2×), 73.1, 65.6, 63.8, 64.4, 57.7, 57, 49, 55.8, 39.6, 50.8 (2×), 53.9, 39, 44.1, 40.7, 38.2, 47.9, 45.4, 54.2, 54.8, 64.8, 65.4, 66.8, 79.4, 57.2, 68.3, 40.6, 46.9, 69.2, 30.9, 37.8, 48.4, 20.8, 46.1, 27.1, 44, 51.8, 39.1, 53.4, 61.7, 65.2, 76.2, 81.5, 63.9, 55.9, 66.6, 68.5, 45.6, 53.2, 76.9, 82, 70.9, 67.3, 52.7, 64.9%"
same,growth,"0.25 µM, runs of 2016","inactive: 49.2, 49.7, 28.1, 24.9, 59.2, 49.5, 52.8, 51.5, 50.5, 53.6, 68.2, 77.4, 78.5, 66.2, 70.2, 62.1, 69.3, 71.5, 50.3, 56.7, 63.1, 58.8 (2×), 71.6, 64.8, 50.2, 47.8, 39.8, 42.3, 45, 27, 35.5, 43.4, 41.6, 56, 49.4, 68.6, 72.3, 57.9, 70.6, 65.2, 74.7, 80.6, 79.5, 74, 71.4, 68.8 (2×), 70.7 (2×), 60.9, 57.1, 63.3 (2×), 56.2, 64.2, 69.2, 62.6, 67.9, 75.1, 54.9, 67.4, 63.7 (2×), 65.4, 65.8, 71.7, 69.7, 73.9, 67.6, 81.6, 88.5, 69.1, 60.5, 67.5, 62.2, 67.2, 63.2, 61.4, 78.4, 78.7, 60.8, 64%"
same,growth,"0.25 µM, runs of 2017","inactive: 55.2, 65, 47.6, 47.5 (2×), 67.2, 37.7, 46.3, 45.7, 54.7 (2×), 49, 33.6, 67.1, 60.4, 39.8, 44.3, 36.9, 39, 39.9, 42.3, 37.6, 45.9, 50.4, 53.3, 72.2, 53, 62.8, 58.4 (2×), 49.2 (2×), 46.6, 46.7, 55, 51.4, 55.1, 54.6, 57 (2×), 54.3, 57.1 (2×), 58.9 (2×), 56, 61.3, 54, 61.9, 66.2, 70.9, 65.3, 60.6, 55.3, 50.3, 52.9, 59.4, 45.8, 47.4, 47.3, 56.8 (2×), 54.9, 59.9, 58.1, 52, 57.5, 56.1 (2×), 61.8, 54.5, 56.3, 46, 51.7, 61.4, 65.5, 59.8, 46.9, 53.2, 53.8, 55.4, 44.5%"
same,growth,"0.25 µM, runs of 2018","inactive: 49.6, 51.5, 37.7, 35.5, 40.2, 46.6, 50.2, 42.5, 50.8, 59, 61.1, 61.7, 67.9, 55.7, 61, 56.8, 45.7, 52.1, 38.9, 28.3, 32.7, 56.7, 55 (2×), 55.2, 57.4, 60.3, 49, 53.9, 56.3, 37.8, 43.3, 39.3, 28.7, 17.9, 42.1, 33.5, 36.4, 48.5, 54.3, 48.1, 62.6, 46.4, 58.1, 58.6, 54.7, 63.8, 58.8, 18.8, 24.2%"
same,growth,"0.25 µM, runs of 2019","inactive: 10.2, 18.2, 16.4, 46.7, 51.7, 52.7, 42.7, 48.1, 52.5, 47.7, 50.5, 34.9, 37.6 (2×), 35, 21.4, 20.7, 37.5, 26.7, 14.4, 37, 39.9, 44.5, 40.7, 52.4, 56.7, 60.9, 62.8, 60.3, 47.6, 43.3, 23.6, 31.7, 32.6, 34.4, 20.9, 22.4, 21.6, 15.2, 44.4, 51.2, 56, 57.5, 51.3, 55.9, 32.4, 32.5, 20.8% and active: 9.79%"
same,growth,"0.25 µM, runs of 2020","inactive: 42, 43.8, 67.7, 62, 60.6, 60.4, 58.2, 61.7 (2×), 38.3, 62.1, 29.5, 34.6, 30.9, 33.7, 28.5, 55, 33.6, 34.5, 53.8, 55.8, 62.2, 67, 56.3, 59.9, 61.9, 67.1%"
same,growth,"0.25 µM, runs of 2021","inactive: 10.2, 15.9, 11.2, 29, 12.5, 40.8, 42.7, 34.9, 31.8, 27.6, 26.2, 28.5, 27.7, 22.4, 32.4, 45, 32.5, 43, 53.8, 37.5 (2×), 43.1, 44.2, 45.5, 51.4, 39.2, 34.2, 42.6, 40.3 (2×), 45.9, 42.8, 40.7, 41.7, 42.3, 46.8, 25.9, 48.5, 29.2, 33.6, 54.6, 27.2, 22.2, 43.5, 42.4% and active: -5.44, 9.18, 9.07, -8.14, 4.51, -5.43, 2.08, 9.06%"
same,growth,"0.25 µM, runs of 2022","active: -18.8%, -16%, 7.32% and inactive: 56.8, 64.6, 69.2, 48.7, 76.2 (2×), 95.6, 115, 53.3, 29.3 (2×), 23.4, 22.8, 82.4, 39, 56.9, 67.7, 91.6, 38.2, 39.7, 25.8, 11.3%"
same,growth,"25 µM, runs of 1991","active: -82.2, -78.1, -98.1, -85.4, -96.9, -86.9, -66.6, -98.8, -88.1, -84.2 (2×), -71.6, -91.9, -74.9, -69.2, -91.7, -92.8, -62.5, -59%"
same,growth,"25 µM, runs of 1992","active: -89, -73.1, -87.3, -90.5 (2×), -71.5, -96.1, -86.1, -76.3 (2×), -83.2, -80.7, -84.8, -89.9 (2×), -82.4 (2×), -52.3, -96.8 (2×), -88.1, -78.3, -69.4, -72.8, -86.2, -85.2, -86.8 (2×), -92.2 (3×), -84.2, -80.5, -85.7 (2×), -76.6, -58.7, -87.8 (2×), -91.3, -77.7, -86.4, -76.2, -84.5, -93.3, -89.1, -88.8, -80.3, -89.4, -70.7, -85.1, -69.8, -77, -94.1, -99.4, -92.6, -88.5, -83.9, -69.9, -88, -91, -74.7, -90.4, -91.7 (2×), -86.3 (2×), -73.7, -85, -97.7, -92 (3×), -90, -94.5, -83.4, -83, -84.4, -75, -62.7, -90.1, -96.2, -94.7 (2×), -91.9, -78.7, -83.7, -67.1, -74.2, -85.5, -81.5, -87.5, -44.8, -89.5% and inactive: 11.8%"
same,growth,"25 µM, runs of 1993","active: -40.5, -26.8, -82.6, -76.8, -93.8, -28.3, -75.8 (2×), -68.3, -94.3, -96.9, -90.1, -86, -92.9, -78.7, -63.5, -77.3, -57.6, -85.5, -81.1, -93.3, -64.3, -83.3, -77.4, -73.1, -78.8, -77.6, -68.1, -72.3, -76.9, -92, -100, -81.4, -92.2, -90.8, -81, -56.1, -66.4, -62, -42.8, -84.3, -73.6, -48.4, -84.9%"
same,growth,"25 µM, runs of 1994","active: -93.1, -97.7, -85.4, -29.3, -81.4, -88.7, -74.6, -70.7, -97, -74.8, -57, -93.6, -60.1, -87.6, -79.4, -83.8, -77.9, -75, -91.8, -81.5, -38.1, -87.9, -42.6, -78.3, -69.7, -42.2%"
same,growth,"25 µM, runs of 1995","active: -61.1, -83.6, -93.9 (2×), -54.1, -83.3, -56.8, -78.8, -64.7, -88.2, -55.6, -89.9, -32.6, -42.7, -79.1, -28.7, -91.7, -71.9 (2×), -88.9, -76.8, -57.3, -70.4, -60.2, -64.1, -25, -41.9, -75.7, -89.6, -78.6, -59.5, -65.2, -77, -66.6, -58.2%"
same,growth,"25 µM, runs of 1996","active: -46.4, -52, -79.1, -82.3, -77.9, -62.7 (2×), -61.7, -93.3, -73.5, -88.9, -69.6, -95.3, -80.9, -84.8, -89.6, -73.6, -86.7, -64.6, -65.7, -87.6, -86.2, -92.6, -85.9, -84.7, -71.5, -86.9, -80.8, -76.1, -81.6, -72.1, -81.8, -28.6, -78, -55.2, -71.2, -70.5, -70.9, -78.7, -93.1, -8.06, -62.1, -79.3, -72.9, -64.2, -82.7, -69.2, -82.9, -66.5, -83.3, -73.3, -79.7% and inactive: 123%, 56.2%"
same,growth,"25 µM, runs of 1997","active: -67.8 (2×), -68.2, -91, -55.6, -77.1, -52.1, -46, -33.2, -61.9, -50.5, -85.1, -74.7, -90.9, -90.6, -93.6, -70.9, -83.9, -78.3, -83.8, -78, -76.3, -75.4, -73.3, -43.1, -52.4, -55.8, -64.7, -63.4, -77.5, -80.2, -87.4, -62.8, -90, -74.3, -51.7, -75.7, -85.3, -52.6%"
